# Measurements reported in PubChem BioAssay AID652104 (National Center for Advancing Translational Sciences (NCATS), 2013).
# The whole screen tested about 410,000 compounds, of which about 7,200 (1.8%) were called active. The inconclusive results got no clear call from the source; some entries with a clear call stand among them for comparison. The call rests on the fitted dose curve; in most records, active means well fitted activation curve with a large enough effect; inconclusive means small, poorly fitted or top-dose-only effect, or another doubt; inactive means no such curve, though single readings can be large or run the other way. No potency is given beside an inconclusive call; the fits are too rough.
# Assay: qHTS of TDP-43 Inhibitors; further: nearly all actives have a fitted effect of over 50% in size; on growth rescue (activation): % of control where 0% means no effect
# Conditions: TDP-43 expressing yeast growth rescue, BacTiter-Glo, 24 h; growth rescue (activation): at 46.1 µM (top of the series) unless noted
# In short: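 Cell-based yeast growth screen: TDP-43 expression induced in galactose, inoculum OD600=0.02 after raffinose pregrowth to mid-log. Read-out BacTiter-Glo luminescence at 24 hr, 30 deg C; inhibition of toxicity seen as signal increase.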
# Potency means the concentration at half of the fitted maximal effect; tags describe the fitted curve by direction and shape.
SMILES,Potency,growth rescue (activation)
CCCNCc1cc(Cl)c(OCC)c(Cl)c1,inactive,
CCOc1ccccc1C(=O)Nc1nncs1,"inconclusive [activator, single point]",
FC(F)(F)c1cccc(-c2cncc(N3CCN(CCN4CCCC4)CC3)n2)c1,inactive,
Cc1ccccc1OCc1nc2c3cnn(-c4ccccc4F)c3ncn2n1,inactive,
Cc1ccccc1NC(=O)CSc1nc(-c2ccccc2)cn1-c1ccccc1F,,inactive: 28.6% [at 9.22 µM]
COc1ccc(C(=O)CC(Sc2ccccc2N)c2ccc(OC)cc2)cc1 (configuration not stated),"inconclusive [activator, full curve]",
O=C(OC1CCOC1=O)c1cc(-c2cccc(Br)c2)nc2ccccc12 (configuration not stated),"inconclusive [activator, single point]",
CCOC(=O)c1c(NC(=O)c2nn(CC)cc2Br)sc(C)c1C,inactive,
COc1ccc(NC(=O)c2sc3nc4c(cc3c2N)CCCCCC4)cc1,"inconclusive [activator, partial curve]",
Cc1cccc(NC(=O)/C(C#N)=C/c2ccc[nH]2)c1C,"inconclusive [activator, full curve, poor fit]",
COc1cccc(OCCSc2nc3ccccc3c(=O)[nH]2)c1,"inconclusive [activator, full curve, poor fit]",
Cc1cc(-c2nc3ccccc3s2)ccc1N,active: 17.8 µM,
COc1ccccc1-c1nnc(SCC(=O)O)n1-c1ccccc1,inactive,
O=C(c1ccccc1)N1CCN(c2ccc(Cl)cc2)CC1,"inconclusive [activator, partial curve]",
CCOc1ccc(CNC(=O)c2ccccc2NC(=O)c2nsc3ccccc23)cc1,inactive,
O=[N+]([O-])c1ccc(Cl)cc1Sc1ccccn1,"inconclusive [activator, single point]",
COc1cc(/C=C2\C(=O)ON=C2c2ccccc2)cc(Br)c1O,active: 11.2 µM,
Cc1ccccc1OCC(=O)Nc1ccccc1N1CCOCC1,"inconclusive [activator, single point]",
O=C(COC(=O)/C=C/c1ccccc1Cl)Nc1cccnc1Cl,"inconclusive [activator, full curve]",
CC1CCCC(C)N1C(=O)c1cccc2c1-c1ccccc1/C2=N/O (configuration not stated),"inconclusive [activator, partial curve]",
Cc1ccc(S(=O)(=O)N2CC(CO)=CCC2c2ccccc2)cc1 (configuration not stated),inactive,
COC(=O)c1sccc1S(=O)(=O)N1CCN(c2ccc(C)cc2C)CC1,"inconclusive [activator, partial curve]",
O=C(c1csc2c1CCCC2)n1cccn1,"inconclusive [activator, single point]",
CC(C)(C)C(=O)NC(=S)NNC(=O)c1ccc(-c2ccccc2)cc1,,inconclusive: -78.2% [activator]

SMILES,Potency,growth rescue (activation)
Cc1c(Cl)cccc1NC(=O)N1CCOc2ccccc21,active: 12.6 µM,
CSc1cccc(NC(=O)C2CCCN(C(=O)c3cnn(-c4ccc(F)cc4)c3-n3cccc3)C2)c1 (configuration not stated),"inconclusive [activator, partial curve]",
COc1cccc(-c2cnc3c(NC=O)cc(-c4ccccc4)cn23)c1,"inconclusive [activator, partial curve]",
S=C1NC[C@H](Cc2ccccc2)N1CCc1cccc2ccccc12,"inconclusive [activator, partial curve]",
O=C(CSc1cn(CC(=O)N2CCCCC2)c2ccccc12)NCc1ccc(F)cc1,"inconclusive [activator, full curve, poor fit]",
CCOc1ccc(CCNC(=O)c2cc3c(=O)n(C)c4ccccc4c3n2C)cc1OCC,inactive,
Cc1nc(Cl)c2oc3ccccc3c2n1,"inconclusive [activator, partial curve]",
O=c1c(Cl)c(NC2CC2)cnn1-c1ccccc1,"inconclusive [activator, partial curve, poor fit]",
COC(=O)/N=C(/Cc1ccc(OC)cc1)c1ccc(OC)cc1,active: 22.4 µM,
O=C1CCC/C1=C/Nc1cccc(F)c1,"inconclusive [activator, single point]",
S=c1[nH]nc(-c2ccccn2)n1/N=C/c1cccc2ccccc12,"inconclusive [activator, single point]",
CS(=O)(=O)c1cccc(-c2nnc(NC(=O)c3ccc4c(c3)OCCO4)o2)c1,"inconclusive [activator, partial curve]",
CCn1cc(C(=O)NCC2CCCO2)c(=O)c2cc(S(=O)(=O)N3CCCCCC3)ccc21 (configuration not stated),"inconclusive [activator, partial curve, poor fit]",
CCCN(CC(=O)Nc1ccccc1C)C(=O)Cc1coc2cc(C)ccc12,"inconclusive [activator, partial curve]",
CC1CCN(c2ccccc2NC(=S)NC(=O)c2ccco2)CC1,"inconclusive [activator, single point]",
C=CCN1C(C(=O)c2ccccc2)=C(OC(=O)COc2ccccc2)c2ccccc2S1(=O)=O,"inconclusive [activator, single point]",
Oc1ccc(-c2nnc(SCC3CCCCC3)o2)cc1,"inconclusive [activator, full curve]",
CN(C)c1oc(-c2ccc(COc3ccccc3)o2)nc1C#N,"inconclusive [activator, single point]",
O=C(COC(=O)CC1CC2CCC1C2)NC(=O)NCc1ccco1 (configuration not stated),inactive,
CC(C)CN(CCNC(=O)c1cn(C)c2ccc(S(=O)(=O)N3CCCCCC3)cc2c1=O)CC(C)C,inactive,
COc1ccc2c(c1)CCc1sc(NC(=O)c3ccc(Br)cc3)nc1-2,"inconclusive [activator, partial curve]",
CCCCN(C(=O)NC(=O)Nc1ccccc1OCC)S(C)(=O)=O,"inconclusive [activator, full curve]",
Cc1cc(C(=O)N/N=C/c2cc(Br)c(Br)o2)n[nH]1,"inconclusive [activator, single point]",
CN(Cc1ccccc1)C(=O)Nc1c(Cl)cccc1Cl,"inconclusive [activator, partial curve]",

SMILES,Potency,growth rescue (activation)
COc1cc(C(C)=O)ccc1OCC(=O)c1cc(C)n(C2CC2)c1C,active: 25.1 µM,
O=C(Cc1cccs1)NNC(=S)NC(=O)c1ccccc1,active: 22.4 µM,
Cc1ccc(COc2ccc(/C=N/O)cc2)cc1,"inconclusive [activator, partial curve]",
O=C(CN1N=C(C(F)(F)F)CC1(O)c1ccc([N+](=O)[O-])cc1)c1ccccc1 (configuration not stated),active: 15.8 µM,
C/C(=N/OC(=O)c1ccccc1Br)c1ccc(C)cc1,active: 14.1 µM,
O=[N+]([O-])c1ccc(-n2nnnc2-c2ccccc2)c([N+](=O)[O-])c1,"inconclusive [activator, single point]",
O=C(CN1CCCN(Cc2ccc(F)cc2)S1(=O)=O)Nc1ccc2c(c1)OCCO2,"inconclusive [activator, full curve, poor fit]",
CC(C)(C)c1ccc(Cc2n[nH]c(=S)[nH]c2=O)cc1,"inconclusive [activator, single point]",
Clc1ccccc1CSc1cc2c(nn1)-c1ccccc1CC2,"inconclusive [activator, single point]",
Cc1ccc(S(=O)(=O)Nc2ccc3nc(C)sc3c2)c(C)c1,active: 12.6 µM,
COc1ccccc1-c1cc(NC(C)=O)c2ncc(-c3cccc(C(C)=O)c3)n2c1,"inconclusive [activator, single point]",
COc1cccc(-n2nnnc2S(C)(=O)=O)c1,active: 1 µM,
CCNC(=O)NC(=O)C(C)Sc1nc2cc(C(=O)OC)ccc2c(=O)n1-c1ccccc1 (configuration not stated),inactive,
CCCCn1c(N)c(-c2nc3ccccc3s2)c2c([N+](=O)[O-])nn(C)c(=O)c21,inactive,
COc1ccc(N(CCC#N)C(=O)/C(C#N)=C\c2cccs2)cc1,inactive,
Cc1cccc(C(c2sc3nc(-c4ccco4)nn3c2O)N2CCN(c3ccccc3F)CC2)c1 (configuration not stated),inactive,
COc1cc2c(cc1OC)CN(C(=O)c1ccc(N3CCCC3)c([N+](=O)[O-])c1)CC2,"inconclusive [activator, partial curve, poor fit]",
COc1ccc(C2CC(c3ccccc3OC(C)=O)=NN2C(=O)/C=C/c2ccccc2)cc1 (configuration not stated),inactive,
CCN(C(=O)c1cc2c(=O)n3cccc(C)c3nc2s1)C1CCCCC1,"inconclusive [activator, single point]",
CCc1c(-c2ccccc2)ncn1Cc1cccc(-c2ccccc2)c1,inactive,
CCc1nnc(NC(=O)c2cccs2)s1,"inconclusive [activator, partial curve]",
O=C(Nc1ccc(C(=O)N2CCN(c3ccccc3F)CC2)cc1)C1=CSCCO1,"inconclusive [activator, single point]",
COc1ccc(OCCN2C(=O)c3ccccc3C2=O)c([N+](=O)[O-])c1,"inconclusive [activator, single point]",
CCCOc1ccc(N2C(=O)CC(SCc3nc4ccccc4[nH]3)C2=O)cc1 (configuration not stated),"inconclusive [activator, partial curve]",
